Assay results published in PubChem BioAssay AID1508642 (National Center for Advancing Translational Sciences (NCATS), 2021).
The whole screen tested about 43,000 compounds, of which about 200 (0.47%) were called active. About 12% were inconclusive and are not listed. The call rests on the fitted dose curve; in most records, active means well fitted cell-killing curve with a large enough effect; inconclusive means small, poorly fitted or top-dose-only effect, or effect the other way; inactive means flat fitted curve, though single readings scatter. This is one part of the list.

Assay: Cell viability qHTS assay in S16 Pmp22-F2sN cells; further: nearly all actives have a fitted effect of over 65% in size
Settings: S16 Pmp22-F2sN Schwann cells (luciferase reporters placed in the Pmp22 gene) viability, CellTiter-Glo, 24 h; series mostly up to 57.5 µM; activity change, negative = cytotoxicity: at the top concentration
Procedure, shortened: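 CellTiter-Glo counter-screen, qHTS, 1536-well. Cells: S16(c9) Pmp22-F2sN, 500-1,000/well in DMEM + 10% FBS. Cpd 23 nL pin transfer, 24 h, 37C/5% CO2. Read: luminescence, CCD imager.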
On the % scale 0 is the no-effect control and ±100 the full control effect.

SMILES | activity change, negative = cytotoxicity
Cc1ccccc1Cn1nnc2c(=O)[nH]c(C3CCCN(C(=O)c4ccc(C(C)(C)C)cc4)C3)nc21 (configuration not stated) | inactive: -15.9%
CCOC(=O)C1CCCN(C(=O)c2ccccc2NC(=O)c2nsc3ccccc23)C1 (configuration not stated) | inactive: -0.952%
Cc1nnc2c3ccccc3nc(N3CCN(c4ccccc4)CC3)n12 | inactive: 0.843%
Cc1cc(C)cc(N2C(=O)CSC23C(=O)N(CC(=O)NC2CCCCC2)c2ccccc23)c1 (configuration not stated) | inactive: -11.1%
COc1ccc(C(=O)Nc2cccc(OCc3cc(=O)n4c5c(sc4n3)CCCC5)c2)cc1OC | inactive: 0.241%
CCOC(=O)c1ccccc1NC(=O)N1CCCn2nc(C)cc21 | inactive: 2.13%
CC(=O)N1CCCc2cc(S(=O)(=O)N3CCC(C(=O)N(C)C4CCCCC4)CC3)ccc21 | inactive: -17.9%
Cc1ccccc1C(=O)Nc1nnc(S(=O)(=O)N2CCc3ccccc32)s1 | inactive: -2.14%
CCc1ccc(NC(=O)Cn2c(=O)n(Cc3ccc(C)cc3)c(=O)c3cccnc32)cc1 | inactive: -0.37%
COc1ccc(NC(=O)c2sc3nc4n(c(=O)c3c2C)CCC4)c(OC)c1 | inactive: 13.1%
CCCCOc1ccccc1NC(=O)CC1Sc2ccccc2NC1=O (configuration not stated) | inactive: -2.16%
COc1ccccc1Cc1nc2ccccc2nc1SCC(=O)N1CCCCC1 | inactive: -2.63%
Cc1noc(/C=C/c2ccccc2F)c1S(=O)(=O)N1CCC(C(=O)NCc2ccco2)CC1 | inactive: -12.4%
CCOC(=O)N1CCN(c2ncc3c(n2)CC(c2ccc(OC)c(OC)c2)CC3=O)CC1 (configuration not stated) | inactive: -2.02%
COc1ccc(Br)cc1CNC(=O)C1CCN(c2nnc(-n3cccc3CNc3ccc(C)cc3)s2)CC1 | inactive: -1.38%
CCn1cc(C(=O)N(C)c2cc(C)ccc2C)c2cc(OC)c(OC)cc2c1=O | inactive: 9.36%
O=S(=O)(Nc1nc2n(n1)C(c1ccc(F)cc1)C=C(c1ccc(Cl)cc1)N2)c1ccccc1 (configuration not stated) | inactive: 7.95%
CSc1nn(CC(=O)Nc2ccc(C)cc2C)c(N)c1S(=O)(=O)c1ccc(Cl)cc1 | inactive: 17.4%
Cc1ccc(NS(=O)(=O)c2ccc3nc(-c4ccccc4)[nH]c3c2)cc1Cl | inactive: -29.8%
CCOc1ccccc1NC(=O)C1CCCN(S(=O)(=O)c2cccs2)C1 (configuration not stated) | inactive: 13.5%
COc1cc2c(C(=O)N3CCN(c4ccc(F)cc4)CC3)cn(CC(C)C)c(=O)c2cc1OC | inactive: -17.1%
COc1cc(NC(=O)CSc2cc(=O)n(C)c3ccccc23)cc(OC)c1OC | inactive: 0.986%
CC(NCc1ccc2c(c1)n(C)c(=O)n2C)c1ccccc1 (configuration not stated) | inactive: 1.57%
COc1ccc(N2CCN(C(=O)c3ccc4c(c3)CCN4S(=O)(=O)c3ccccc3)CC2)cc1 | inactive: -5.36%

SMILES | activity change, negative = cytotoxicity
CCC12CN3CC(CC)(CN(C1)C3c1c[nH]c3ccccc13)C2=O (configuration not stated) | inactive: -1.82%
Cc1ccc(-c2cn3c(n2)sc2cc(C(=O)NC4CCCCCC4)ccc23)cc1 | inactive: 2.25%
Cc1cc(C)n2nc(CNC(=O)c3cccc(N(C)C)c3)nc2n1 | inactive: -5.24%
CCOc1ccc(CCNC(=O)CCn2c(=O)c3cccn3c3ccc(F)cc32)cc1OCC | inactive: 9.03%
COc1ccc(-c2nc3ccccc3o2)cc1NC(=O)c1cccc2c(Cl)cccc12 | inactive: 10.9%
COc1ccc(NC(=O)CC2C(=O)N(c3ccc(OC)cc3)C(=O)N2Cc2ccc(OC)c(OC)c2)cc1 (configuration not stated) | inactive: -0.477%
CCOc1ccc(N2CC(NC(=O)Cc3cccs3)CC2=O)cc1 (configuration not stated) | inactive: -0.764%
CN(Cc1ccccc1)c1ccc2cc(S(=O)(=O)N3CCCCC3)ccc2n1 | inactive: 12.4%
Cc1ccc(C)c(CSc2cn(CC(=O)N3CCCC3)c3ccccc23)c1 | inactive: -17.6%
COc1ccc2cc(-c3nc(-c4ccc(N(C)C)cc4)no3)c(=O)oc2c1 | inactive: 2.05%
CCOc1ccc(NC(=O)CCc2c(C)nc3c4c(C)cc(C)nc4nn3c2C)cc1 | inactive: -5.82%
Cc1nn(C)c2c1c(-c1ccccc1)cc(=O)n2Cc1ccc(F)cc1Cl | inactive: 2.82%
CCN(CC)C(=O)Cn1c(=O)n(-c2ccc(Cl)cc2)c(=O)c2c3c(sc21)CCCCC3 | inactive: 18.4%
O=C(CSc1n[nH]c(-c2ccccc2Cl)n1)NCCCc1ccccc1 | inactive: 4.91%
CCOc1ccc(NC(=O)CSC2=Nc3ccccc3C3=NC(CC(=O)NCc4cccs4)C(=O)N23)cc1 (configuration not stated) | inactive: -1.81%
COc1cc(-c2cc(OC)c3c(C)oc(C)c3c(=O)c2)ccc1OC(=O)c1ccc(C)cc1 | inactive: -6.48%
CC(=O)c1cccc(NC(=O)C2CCN(c3ncnc4c3nc3n4CCCCC3)CC2)c1 | inactive: -23%
CC1=C(c2ccc(C)c(C)c2)S(=O)(=O)N=C1N1CCC(C(=O)NC(C)c2ccccc2)CC1 (configuration not stated) | inactive: -0.391%
CCc1ccc2oc(C(=O)N(Cc3ccc(N(C)C)cc3)Cc3ccco3)c(C)c2c1 | inactive: -2.66%
CC(CCc1ccccc1)NC(=O)Cn1c(=O)nc(-c2ccccc2)c2cc(Cl)ccc21 (configuration not stated) | inactive: 4.85%
O=C(NCc1ccc(F)cc1Cl)c1cc(=O)[nH]c2ccc(S(=O)(=O)N3CCCCC3)cc12 | inactive: 1.23%
COc1ccc(-c2nc3scc(CCNS(=O)(=O)c4ccc5c(c4)OCCO5)n3n2)cc1OC | inactive: -7.06%
COc1ccc(CNC(=O)Cc2c(C(=O)O)c(C)cn2C)cc1 | inactive: 3.62%
